Some of the results follow.

Results on 125 sequences are retold here after article PMC12135187, “A role for pH dynamics regulating transcription factor DNA-binding selectivity”.

In this assay the target is T1, FOXC2 DBD WT (UniProt Q99958 72-172).
T1 sequence: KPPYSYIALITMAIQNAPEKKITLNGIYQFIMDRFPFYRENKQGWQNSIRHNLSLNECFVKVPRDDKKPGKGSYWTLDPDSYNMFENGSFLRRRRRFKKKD
The experiment in a line: SELEX-seq (GST pull-down, four rounds, 16-nt random library); pH 7.0; 20 mM HEPES, 140 mM KCl, 0.05 mM TCEP-HCl, pH 7.0, room temperature, 30 min; 2.5 uM GST-FOXC2 DBD, 0.25 uM DNA library; high values mean tight binding. As to conditions: protein: recombinant; tags: N-terminal GST (pGEX-6P-2); dsDNA, one strand shown. A digest of the protocol:
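GST-tagged FOXC2 DNA-binding domain (E. coli-expressed, glutathione-purified) was incubated with a DNA library carrying a 16 bp randomized region, at 0.25 μM DNA and 2.5 μM protein, for 30 min at RT in 20 mM HEPES, 140 mM KCl, 0.05 mM TCEP–HCl, pH 7. Complexes were captured on glutathione Sepharose beads, washed, heat-eluted and PCR-amplified over four rounds. Initial and selected libraries were Illumina MiniSeq sequenced. Relative enrichment came from the Bioconductor SELEX R package.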
Take GAACTA: the binding signal was 0.419 relative enrichment.

Turning to CATAAA, the binding signal stood at 0.596 relative enrichment.

On to TACCTC, for which the binding signal came out at 0.625 relative enrichment.

As for CAGTCT, the binding signal was 0.627 relative enrichment.

With ACCGTA, the binding signal worked out at 0.478 relative enrichment.

Consider TTCCGT, for which the binding signal amounted to 0.616 relative enrichment.

In the case of AAAGAT, the binding signal came out at 0.356 relative enrichment.

AGTACT: the binding signal is 0.668 relative enrichment.

In the case of CTTTGA, the binding signal was 0.338 relative enrichment.

CTCATG: the binding signal came out at 0.568 relative enrichment.

As for AAACCC, the binding signal was determined as 0.354 relative enrichment.

In the case of AACCGT, the binding signal turned out to be 0.374 relative enrichment.

For GTCCAA, the binding signal turned out to be 0.313 relative enrichment.

With GTTGAA, the binding signal was determined as 0.32 relative enrichment.

Regarding GTGTAA, the binding signal was found to be 0.38 relative enrichment.

Consider GACAAC, for which the binding signal stood at 0.26 relative enrichment.

Consider TACCTG, for which the binding signal is 0.463 relative enrichment.

Turning to ACATAA, the binding signal was found to be 0.45 relative enrichment.

With TCTGTG, the binding signal is 0.32 relative enrichment.

On to CAAGCG, for which the binding signal amounted to 0.437 relative enrichment.

On to ATAAGC, for which the binding signal was found to be 0.803 relative enrichment.

Consider ATGTTG, for which the binding signal turned out to be 0.379 relative enrichment.

In the case of TCACTT, the binding signal came out at 0.45 relative enrichment.

Take ATGGTA: the binding signal was 0.499 relative enrichment.

For the sequence CAGAAA, the binding signal stood at 0.321 relative enrichment.

For the sequence GGATTA, the binding signal worked out at 0.375 relative enrichment.

For the sequence ACAGTA, the binding signal worked out at 0.415 relative enrichment.

CGTTAA: the binding signal was 0.239 relative enrichment.

For the sequence ATCGTA, the binding signal was determined as 0.43 relative enrichment.

CTGTTA: the binding signal is 0.238 relative enrichment.

Regarding GATCTT, the binding signal was 0.497 relative enrichment.

Turning to TCTGCT, the binding signal was 0.471 relative enrichment.

For the sequence TATACA, the binding signal was determined as 0.505 relative enrichment.

Take GTTCTT: the binding signal turned out to be 0.28 relative enrichment.

On to ACTAGC, for which the binding signal was 0.492 relative enrichment.

As to AAAGTA, the binding signal turned out to be 0.281 relative enrichment.

For the sequence CTCCAA, the binding signal is 0.387 relative enrichment.

With CTGTCA, the binding signal came out at 0.358 relative enrichment.

Regarding AACTAG, the binding signal amounted to 0.393 relative enrichment.

Take CCTCTT: the binding signal was determined as 0.521 relative enrichment.

As to AACGTT, the binding signal worked out at 0.324 relative enrichment.

Turning to CAACCC, the binding signal was 0.391 relative enrichment.

On to TCGCAA, for which the binding signal was found to be 0.344 relative enrichment.

Regarding ACACTG, the binding signal turned out to be 0.342 relative enrichment.

With ACCTAC, the binding signal was determined as 0.532 relative enrichment.

On to ACATTG, for which the binding signal stood at 0.244 relative enrichment.

For AGTAAA, the binding signal came to 0.506 relative enrichment.

On to TCCATG, for which the binding signal stood at 0.573 relative enrichment.

ATCCAA: the binding signal was 0.333 relative enrichment.

On to GTCAAA, for which the binding signal turned out to be 0.326 relative enrichment.

Consider CATTGC, for which the binding signal was 0.363 relative enrichment.

As for TCCATA, the binding signal was 0.385 relative enrichment.

In the case of TACAGA, the binding signal is 0.389 relative enrichment.

As to AATACA, the binding signal was 0.419 relative enrichment.

As for GACACA, the binding signal came out at 0.296 relative enrichment.

For AACTAA, the binding signal was determined as 0.338 relative enrichment.

CCACTA: the binding signal came out at 0.55 relative enrichment.

As to ATGTAG, the binding signal amounted to 0.407 relative enrichment.

Regarding GTTCGT, the binding signal is 0.328 relative enrichment.

Turning to TAACGA, the binding signal amounted to 0.303 relative enrichment.

Consider CTTTGC, for which the binding signal was 0.372 relative enrichment.

In the case of TCCTTA, the binding signal turned out to be 0.404 relative enrichment.

Regarding AAGACT, the binding signal is 0.468 relative enrichment.

As for ACAAGA, the binding signal was 0.322 relative enrichment.

As for CTGTCT, the binding signal is 0.428 relative enrichment.

For the sequence GCTAAA, the binding signal is 0.291 relative enrichment.

Take AATAGG: the binding signal stood at 0.428 relative enrichment.

With AACGTG, the binding signal came out at 0.299 relative enrichment.

In the case of CTAAAA, the binding signal was 0.267 relative enrichment.

Turning to AGAATC, the binding signal is 0.596 relative enrichment.

As for CCTCAA, the binding signal is 0.33 relative enrichment.

With AGCTCT, the binding signal was 0.398 relative enrichment.

GTGATA: the binding signal came out at 0.39 relative enrichment.

Regarding CCCTTG, the binding signal was found to be 0.444 relative enrichment.

CGCTAA: the binding signal is 0.329 relative enrichment.

AATTGA: the binding signal came out at 0.237 relative enrichment.

For the sequence TCTACT, the binding signal amounted to 0.56 relative enrichment.

CATACC: the binding signal turned out to be 0.469 relative enrichment.

For the sequence GAAACA, the binding signal is 0.347 relative enrichment.

Take TGGCAA: the binding signal was found to be 0.302 relative enrichment.

Consider AGAACT, for which the binding signal was found to be 0.394 relative enrichment.

In the case of TTCTAC, the binding signal was 0.528 relative enrichment.

On to CATCGC, for which the binding signal was 0.711 relative enrichment.

Regarding TTCATC, the binding signal is 0.605 relative enrichment.

For the sequence ACTTCA, the binding signal turned out to be 0.453 relative enrichment.

With ATCATG, the binding signal was found to be 0.422 relative enrichment.

As for TCATAA, the binding signal was determined as 0.453 relative enrichment.

As for ATGTAC, the binding signal came to 0.329 relative enrichment.

As for ATAAAT, the binding signal came to 0.595 relative enrichment.

Take ATTCCC: the binding signal is 0.519 relative enrichment.

As for CAAATG, the binding signal was found to be 0.327 relative enrichment.

For the sequence GCCTTT, the binding signal amounted to 0.309 relative enrichment.

As for CATTAC, the binding signal was 0.341 relative enrichment.

With CACACA, the binding signal worked out at 0.275 relative enrichment.

On to CATTCA, for which the binding signal stood at 0.433 relative enrichment.

With TAATGA, the binding signal turned out to be 0.31 relative enrichment.

Consider ACACGA, for which the binding signal is 0.377 relative enrichment.

GAATTA: the binding signal stood at 0.339 relative enrichment.

Consider ATATAT, for which the binding signal was determined as 0.326 relative enrichment.

TCCAAT: the binding signal is 0.319 relative enrichment.

Turning to TCTCTG, the binding signal was found to be 0.51 relative enrichment.

TTTCAG: the binding signal is 0.354 relative enrichment.

TGCTAA: the binding signal turned out to be 0.278 relative enrichment.

Take ACACGT: the binding signal was 0.335 relative enrichment.

For the sequence CCGTAT, the binding signal came to 0.463 relative enrichment.

Take CACTAC: the binding signal turned out to be 0.531 relative enrichment.

ATCTCA: the binding signal came to 0.406 relative enrichment.

With AATCCA, the binding signal came out at 0.347 relative enrichment.

Regarding GCACTA, the binding signal came to 0.481 relative enrichment.

As to AAGGTA, the binding signal was 0.429 relative enrichment.

As for ACTATA, the binding signal worked out at 0.325 relative enrichment.

For the sequence TGTCAA, the binding signal was 0.457 relative enrichment.

For AGCTCA, the binding signal turned out to be 0.3 relative enrichment.

For TACACC, the binding signal is 0.418 relative enrichment.

Turning to CTTCAT, the binding signal stood at 0.554 relative enrichment.

As for ATCCCA, the binding signal came to 0.419 relative enrichment.

For AACGGT, the binding signal came to 0.444 relative enrichment.

Take TGAAAA: the binding signal was 0.309 relative enrichment.

For GAAAAA, the binding signal was 0.304 relative enrichment.

Take CAAACA: the binding signal was 0.57 relative enrichment.

As for ATTGTC, the binding signal stood at 0.33 relative enrichment.

Take ACCAGT: the binding signal is 0.591 relative enrichment.

As to CCCTGT, the binding signal is 0.366 relative enrichment.

Regarding ACTAAA, the binding signal was found to be 0.284 relative enrichment.

Turning to CTCGTA, the binding signal is 0.59 relative enrichment.
